Assay results: PMC9911399, “Two distinct binding modes provide the RNA-binding protein RbFox with extraordinary sequence specificity”
Positions count from the first letter of the chain named. The list shows a part of the results.

T1: RBFOX1 RRM (Homo sapiens, UniProt Q9NWB1 109-208)
T1 sequence: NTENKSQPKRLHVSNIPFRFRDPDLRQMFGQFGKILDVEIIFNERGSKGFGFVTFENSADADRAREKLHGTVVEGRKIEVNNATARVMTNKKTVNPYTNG

B1: CUAAACA (DNA:RNA)
RNA: GGGAGACCGGAAUUCAGAUUGUCCCUAAACAUUAAAUCCCGUCGUAGCCACCA
DNA 1: CAATCTGAATTCCGGTCTCCC
DNA 2: TGGTGGCTACGACGGGATT
B2: ACCUCCA (DNA:RNA)
RNA: B1 RNA with C25A, U26C, A27C, A28U, A29C
DNA 1: CAATCTGAATTCCGGTCTCCC
DNA 2: TGGTGGCTACGACGGGATT
B3: CAAUCAA (DNA:RNA)
RNA: B1 RNA with U26A, A28U, A29C, C30A
DNA 1: CAATCTGAATTCCGGTCTCCC
DNA 2: TGGTGGCTACGACGGGATT
B4: UAACACA (DNA:RNA)
RNA: B1 RNA with C25U, U26A, A28C
DNA 1: CAATCTGAATTCCGGTCTCCC
DNA 2: TGGTGGCTACGACGGGATT
B5: AAUACGC (DNA:RNA)
RNA: B1 RNA with C25A, U26A, A27U, A29C, C30G, A31C
DNA 1: CAATCTGAATTCCGGTCTCCC
DNA 2: TGGTGGCTACGACGGGATT
B6: UGGCCAU (DNA:RNA)
RNA: GGGAGACCGGAAUUCAGAUUGUCCUGGCCAUUUAAAUCCCGUCGUAGCCACCA
DNA 1: CAATCTGAATTCCGGTCTCCC
DNA 2: TGGTGGCTACGACGGGATT
B7: GGCCAUU (DNA:RNA)
RNA: B6 RNA with U25G, G27C, C29A, A30U
DNA 1: CAATCTGAATTCCGGTCTCCC
DNA 2: TGGTGGCTACGACGGGATT
B8: AGGCCUG (DNA:RNA)
RNA: B6 RNA with U25A, A30U, U31G
DNA 1: CAATCTGAATTCCGGTCTCCC
DNA 2: TGGTGGCTACGACGGGATT
B9: GGACAUA (DNA:RNA)
RNA: B1 RNA with C25G, U26G, A28C, C30U
DNA 1: CAATCTGAATTCCGGTCTCCC
DNA 2: TGGTGGCTACGACGGGATT
B10: UCGCAUC (DNA:RNA)
RNA: B6 RNA with G26C, C29A, A30U, U31C
DNA 1: CAATCTGAATTCCGGTCTCCC
DNA 2: TGGTGGCTACGACGGGATT
B11: UCUGAUU (DNA:RNA)
RNA: B6 RNA with G26C, G27U, C28G, C29A, A30U
DNA 1: CAATCTGAATTCCGGTCTCCC
DNA 2: TGGTGGCTACGACGGGATT
B12: UAGCAGC (DNA:RNA)
RNA: B6 RNA with G26A, C29A, A30G, U31C
DNA 1: CAATCTGAATTCCGGTCTCCC
DNA 2: TGGTGGCTACGACGGGATT
B13: AUCUAAU (DNA:RNA)
RNA: B1 RNA with C25A, A27C, A28U, C30A, A31U
DNA 1: CAATCTGAATTCCGGTCTCCC
DNA 2: TGGTGGCTACGACGGGATT
B14: UGCACUA (DNA:RNA)
RNA: B6 RNA with G27C, C28A, A30U, U31A
DNA 1: CAATCTGAATTCCGGTCTCCC
DNA 2: TGGTGGCTACGACGGGATT
B15: CAUCUGG (DNA:RNA)
RNA: B1 RNA with U26A, A27U, A28C, A29U, C30G, A31G
DNA 1: CAATCTGAATTCCGGTCTCCC
DNA 2: TGGTGGCTACGACGGGATT
B16: GAGGCGA (DNA:RNA)
RNA: B6 RNA with U25G, G26A, C28G, A30G, U31A
DNA 1: CAATCTGAATTCCGGTCTCCC
DNA 2: TGGTGGCTACGACGGGATT
B17: GCACUGU (DNA:RNA)
RNA: B6 RNA with U25G, G26C, G27A, C29U, A30G
DNA 1: CAATCTGAATTCCGGTCTCCC
DNA 2: TGGTGGCTACGACGGGATT
B18: AUGAACU (DNA:RNA)
RNA: B1 RNA with C25A, A27G, A31U
DNA 1: CAATCTGAATTCCGGTCTCCC
DNA 2: TGGTGGCTACGACGGGATT
B19: GAGUAGG (DNA:RNA)
RNA: B1 RNA with C25G, U26A, A27G, A28U, C30G, A31G
DNA 1: CAATCTGAATTCCGGTCTCCC
DNA 2: TGGTGGCTACGACGGGATT
B20: UAUAUUA (DNA:RNA)
RNA: B1 RNA with C25U, U26A, A27U, A29U, C30U
DNA 1: CAATCTGAATTCCGGTCTCCC
DNA 2: TGGTGGCTACGACGGGATT
B21: UUGGGCG (DNA:RNA)
RNA: B1 RNA with C25U, A27G, A28G, A29G, A31G
DNA 1: CAATCTGAATTCCGGTCTCCC
DNA 2: TGGTGGCTACGACGGGATT
B22: UAGUAGU (DNA:RNA)
RNA: B6 RNA with G26A, C28U, C29A, A30G
DNA 1: CAATCTGAATTCCGGTCTCCC
DNA 2: TGGTGGCTACGACGGGATT
B23: UAACCGG (DNA:RNA)
RNA: B6 RNA with G26A, G27A, A30G, U31G
DNA 1: CAATCTGAATTCCGGTCTCCC
DNA 2: TGGTGGCTACGACGGGATT
B24: GUACGUC (DNA:RNA)
RNA: B1 RNA with C25G, A28C, A29G, C30U, A31C
DNA 1: CAATCTGAATTCCGGTCTCCC
DNA 2: TGGTGGCTACGACGGGATT
B25: UCGUUAC (DNA:RNA)
RNA: B6 RNA with G26C, C28U, C29U, U31C
DNA 1: CAATCTGAATTCCGGTCTCCC
DNA 2: TGGTGGCTACGACGGGATT
B26: ACCCCCA (DNA:RNA)
RNA: B1 RNA with C25A, U26C, A27C, A28C, A29C
DNA 1: CAATCTGAATTCCGGTCTCCC
DNA 2: TGGTGGCTACGACGGGATT
B27: CUAUAUC (DNA:RNA)
RNA: B1 RNA with A28U, C30U, A31C
DNA 1: CAATCTGAATTCCGGTCTCCC
DNA 2: TGGTGGCTACGACGGGATT
B28: GCCCAGG (DNA:RNA)
RNA: B1 RNA with C25G, U26C, A27C, A28C, C30G, A31G
DNA 1: CAATCTGAATTCCGGTCTCCC
DNA 2: TGGTGGCTACGACGGGATT
B29: CGAGGGU (DNA:RNA)
RNA: B1 RNA with U26G, A28G, A29G, C30G, A31U
DNA 1: CAATCTGAATTCCGGTCTCCC
DNA 2: TGGTGGCTACGACGGGATT
B30: GAGGUAC (DNA:RNA)
RNA: B6 RNA with U25G, G26A, C28G, C29U, U31C
DNA 1: CAATCTGAATTCCGGTCTCCC
DNA 2: TGGTGGCTACGACGGGATT
B31: AAGCGAA (DNA:RNA)
RNA: B6 RNA with U25A, G26A, C29G, U31A
DNA 1: CAATCTGAATTCCGGTCTCCC
DNA 2: TGGTGGCTACGACGGGATT

Target: T1, RBFOX1 RRM
Assay: EMSA; HiTS-Eq, 1 nM pool, 10 min; buffer printed only for the single-RNA assays: 10 mM Tris pH 7.5, 150 mM NaCl, 3.4 mM EDTA, 0.001% NP-40, 30 C
Conditions: tags: His6 N-terminal (pET28a); label: 5' 32P
Procedure, shortened: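 Relative association constants, normalised to the cognate motif, were derived by comparing read counts of each RNA species with those of the control reaction. The RNA sequenced was the free fraction, separated by 8% native PAGE after a 10 min equilibration in 50 µL of 1 nM 5′-radiolabelled RNA (7 randomized nucleotides) with increasing concentrations of purified wild-type or mutant RbFox RRM.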

Binder	binding signal
B1	0.00246 KA relative to UGCAUGU
B2	0.00269 KA relative to UGCAUGU
B3	0.00098 KA relative to UGCAUGU
B4	0.000618 KA relative to UGCAUGU
B5	0.00513 KA relative to UGCAUGU
B6	0.0115 KA relative to UGCAUGU
B7	0.00612 KA relative to UGCAUGU
B8	0.0213 KA relative to UGCAUGU
B9	0.0152 KA relative to UGCAUGU
B10	0.0121 KA relative to UGCAUGU
B11	0.0122 KA relative to UGCAUGU
B12	0.00974 KA relative to UGCAUGU
B13	0.00114 KA relative to UGCAUGU
B14	0.0154 KA relative to UGCAUGU
B15	0.00701 KA relative to UGCAUGU
B16	0.0186 KA relative to UGCAUGU

Binder	binding signal
B17	0.0136 KA relative to UGCAUGU
B18	0.00612 KA relative to UGCAUGU
B19	0.0115 KA relative to UGCAUGU
B20	0.00424 KA relative to UGCAUGU
B21	0.0138 KA relative to UGCAUGU
B22	0.0117 KA relative to UGCAUGU
B23	0.00573 KA relative to UGCAUGU
B24	0.00944 KA relative to UGCAUGU
B25	0.0137 KA relative to UGCAUGU
B26	0.00211 KA relative to UGCAUGU
B27	0.00386 KA relative to UGCAUGU
B28	0.0161 KA relative to UGCAUGU
B29	0.00789 KA relative to UGCAUGU
B30	0.0148 KA relative to UGCAUGU
B31	0.00487 KA relative to UGCAUGU
